Measurements taken from article PMC12264551 (Molecular Pharmacology, 2025).

Target: pituitary adenylate cyclase-activating polypeptide receptor type 1 (human) (UniProt P41586)

Substance “pituitary adenylate cyclase-activating peptide (PACAP-38)” has a −LogEC50 of PACAP, maximum rate of cAMP accumulation (GloSensor), COS-7 cells transfected with PAC1R, vehicle (Fig. 6B) (−LogEC50 (EC50 in M)) of 9.09 and a −LogEC50 of PACAP, maximum rate of cAMP accumulation (GloSensor), COS-7 cells transfected with PAC1R, with ATP 1.5 mM (Fig. 6B) (−LogEC50 (EC50 in M)) of 10.
